Read counts are not given, so values of variants with three or more changes are uncertain.
B1: CPEB3 Ribozyme (parent)
chain: UAACAGGGGGCCACAGCAGAAGCGUUCACGUCGCAGCCCCUGUCAGAUUCUGGUGAAUCUGCGAAUUCUGCUGUAUAUCUC

Variants of: B1
Assay: self-cleavage, relative activity (ratio to wild type); higher = more cleavage; in vitro, sequencing
In short: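 Relative activity was defined as the cleaved/total read fraction for a variant divided by the same fraction for the unmutated ribozyme. CPEB3 self-cleaving ribozyme libraries were made by rounds of error-prone PCR, barcoded, and transcribed in vitro with T7 RNA polymerase for 5 hours at 37°C, and cleavage ran through transcription plus a 15 min DNase I step before EDTA. Illumina sequencing of template-switched reverse transcripts gave the reads, and DNA sequencing mapped the barcodes. Averages come from three batches, using variants with at least 5 reads.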

Question: For UAACCGGGGGCCACAGCAGAGCCGUUCACGUCGCAGCCCCUGUCAGAUUCCGGUGAAUCUGCGAAUUCUGCUGUAUAUCUC [A5C A21G G22C U51C], which self-cleavage is on record?
Answer: Its self-cleavage is 0.12.

Question: With UAACCGGGGGCCACUGCUGAAGCGUUCACGUCGCAGCCCCUGUCAGAUUCUGGCGAAUCCGCGAACUCUGCUGUAUACCUC [A5C A15U A18U U54C U60C U66C U78C] as the variant, how does the self-cleavage read?
Answer: Its self-cleavage is 0.1.

Question: Which self-cleavage does the source give for UAACCGGGGGCCACAGCAGAAGCGUUCCCGUCGCAGCCCCUGUCAGAUUCUGGUGUAUCUGUGAAUUCUGCCGUAUACCUC [A5C A28C A56U C62U U72C U78C] here?
Answer: The self-cleavage was 0.14.

Question: Which self-cleavage does the source give for UAACCGGGGGCCACUGCGGAAGCGUUCACGCCGCAGCCCCUGUCAGAUCCUGGUGGAUCUGCGUAUUCUGCUGUAUAUCUC [A5C A15U A18G U31C U49C A56G A64U] here?
Answer: The self-cleavage was 0.21.

Question: With UAACCGGGGGCCACAGCAGAAGCGUUCGCGUCGCAGCCCCUGUCAGAUUCCGGUGAAACAGCGAAUUCUGCUGUAUGCCUC [A5C A28G U51C U58A U60A A77G U78C] as the variant, how does the self-cleavage read?
Answer: Its self-cleavage is 0.22.

Question: With UAACCGGGGGCCACGGCGGAAGCGUUCACGUCGCAGCCCCUGUCUGAUUCUGGUGAAUCUGCGAAUUCUGCUGUAUAUCUC [A5C A15G A18G A45U] as the variant, how does the self-cleavage read?
Answer: The self-cleavage was 0.61.

Question: With UAACCGGGGGCCACUGCAGAAGCGUUCACGUCGCAGCCCCUGUCAGAUUCUGGUGAAUCUGCGAAUUCUGCUGUAUACCUC [A5C A15U U78C] as the variant, how does the self-cleavage read?
Answer: The self-cleavage was 1.06.

Question: With UAACCGGGGGCCGCAGCAGAAGCGUUCACGUCGCAGCCCCCGUCAGAUUCUCGUGAAUCUGCGAAUUCUGCUGUAUAUCUC [A5C A13G U41C G52C] as the variant, how does the self-cleavage read?
Answer: The self-cleavage was 0.5.

Question: For UAACCGGGGGCCACAGCGGAAGCGUUCACGUCGCAGCCCUUGUCAGAUUCUGGUGAAUCUGCGUAUUCUGCUGUACAUCUC [A5C A18G C40U A64U U76C], which self-cleavage is on record?
Answer: Its self-cleavage is 0.16.

Question: Which self-cleavage does the source give for UAACCGGGGGCCACAGCAGAUGCGUUCACGUCGCAGCUCCUGUCAGAUUCUGGUGAAUCUGCGAAUUCUGCUGUAUAUCUC [A5C A21U C38U] here?
Answer: The self-cleavage was 0.37.

Question: With UAACCGGGGGCCACAGCAGAAGCGUUCACGUCGCUGCCCCUGCCAGAUUCUGGUGAAUCUGCGAAUUCUGCUGUAUAUCUC [A5C A35U U43C] as the variant, how does the self-cleavage read?
Answer: The self-cleavage was 0.31.

Question: For UAACCGGGGGCCACAGCAGAAGCGUUCACGUCGCAGCCCCUGUCAGAUUCUGGUGAGUCUGCGAAUCCCGCUGUAUAUCUC [A5C A57G U67C U69C], which self-cleavage is on record?
Answer: Its self-cleavage is 0.18.

Question: With UAACCGGGGGCCGCAGCAGAAGCGUUCACGUCGCAGCCCCUGUCAGCUUCUGGUGAGUCUGCGAAUACUGCUGUAUAUCUC [A5C A13G A47C A57G U67A] as the variant, how does the self-cleavage read?
Answer: Its self-cleavage is 0.35.

Question: For UAACCGGGGGCCACAGCAGCAGCGUUCACGUCGCAUCCCCUGUCAGGUUCUGGUGAAUCUGCGAAUUCUGCUGUAUAUCUC [A5C A20C G36U A47G], which self-cleavage is on record?
Answer: The self-cleavage was 0.22.

Question: Which self-cleavage does the source give for UAACCGGGGGCCACGGCAGAAGCGUUCACGUCGCAGCCCCUGUCAGAUUCUGGUGAAUCUGCGGAUUCUGCUGUAUAUCAC [A5C A15G A64G U80A] here?
Answer: Its self-cleavage is 0.99.

Question: For UAACCGGGGGCCACAGCAGGAGCGUUCACGUCGCAGCCCCUGACAGAUUCUGGUGAGUCUGCGAAUUCUGCUGUAUAUCUC [A5C A20G U43A A57G], which self-cleavage is on record?
Answer: Its self-cleavage is 0.74.

Question: With UAACCGGGGGCCACAGCAGGAGCGUUCACGUCGCAGCCCCUGACAGAUUCUGGUGGAUCUGCGAAUUCUGCUGUAUAUCUC [A5C A20G U43A A56G] as the variant, how does the self-cleavage read?
Answer: The self-cleavage was 0.44.

Question: With UAACCGGGGGCCACAGCAGAAGCGUUCACGUCGCGGCCCCUGUCAGAAUCUGGUGAAUCUGCGAAUUCUGCUGUAUAUCCC [A5C A35G U48A U80C] as the variant, how does the self-cleavage read?
Answer: Its self-cleavage is 1.2.

Question: With UAACCGGGGGCCACAGCAGAAGCGUUCACGUCGCAGCCCCUGUCAGGUUCUGGUGAACCUGCGAAUUCUGCUGUAUAUCUC [A5C A47G U58C] as the variant, how does the self-cleavage read?
Answer: Its self-cleavage is 1.1.

Question: Which self-cleavage does the source give for UAACCGGGGGCCACAGCAGAAGCGUUCACGUCGCUGCCCCUGUCAGAUUCUGGUGAAUCUGCGAAUACUGCUGUAUUUCUC [A5C A35U U67A A77U] here?
Answer: Its self-cleavage is 0.38.

Question: For UAACCGGGGGCCACAGCAGCAGCGUUCACGUCGCAGCCCCUGUCAGAUUCUGGUGAAACUGCGACUUCUGCUGUAUAUCUC [A5C A20C U58A A65C], which self-cleavage is on record?
Answer: Its self-cleavage is 0.08.

Question: Which self-cleavage does the source give for UAACCGGGGGCCACAGCGAAAGCGUUCGCGACGCAGCCCCUGUCAGAUUCUGGUGAAUCUGCGAAUUCUGCUGUAUACCUC [A5C A18G G19A A28G U31A U78C] here?
Answer: The self-cleavage was 0.07.

Question: Which self-cleavage does the source give for UAACCGGGGGCCACAGCAGAAGCGUUCGCGACGCAGCCCUUGUCAGAUUCUGCUGAAUCUGCGAAUUCUGCUGUAUAGCUC [A5C A28G U31A C40U G53C U78G] here?
Answer: The self-cleavage was 0.04.

Question: With UAACCGGGGGCCACAGCAGGAGCGUUCACGUCGCAGCCCCUGUCAGACUCUGGUGAAUCUGCGAAUUCUGCUGUAUAUCUC [A5C A20G U48C] as the variant, how does the self-cleavage read?
Answer: The self-cleavage was 0.2.

Question: For UAAUAGGGGGCCACAGCAGAAGCGUUCACGUCGCAGCCCCUGCCAGAUUCCGGUGAGUCUGCGAAUUCUGCUGUAUAUCUC [C4U U43C U51C A57G], which self-cleavage is on record?
Answer: The self-cleavage was 0.61.

Question: For UAACCGGGGGCCACAGCAGGAGCGUUCACGUCGCAGCCCCAGUCAGAUUCUGGUGAGUCUGCGAAUUCUGCUGUAUAUCUC [A5C A20G U41A A57G], which self-cleavage is on record?
Answer: Its self-cleavage is 0.29.

Question: Which self-cleavage does the source give for UAACCGGGGGCCACAGCAGUAGCGUUCACGUCGCUGCCCCUGUCAGAUUCUGGUGAACCUGCGAAUUCUGCUGUAUAUCUC [A5C A20U A35U U58C] here?
Answer: The self-cleavage was 0.1.

Question: For UAACCGGGGGCCACAGCAGGAGCGUUCACGUCGCAGCCCCCGUCAGAUUCUGGUGAACCUGCGAAUUCUGCUGUAUAUCUC [A5C A20G U41C U58C], which self-cleavage is on record?
Answer: The self-cleavage was 0.42.

Question: Which self-cleavage does the source give for UAACCGGGGGCCUCAGCAGAAGCGUUCACGUCGCAGCCCCUAUCAGAUUCUGGUGAAUCUGCGAAUUCUGCUGUAUGUCUC [A5C A13U G42A A77G] here?
Answer: The self-cleavage was 0.31.

Question: With UAACCGGGGGCCACAGCAGAAGCGUUCGCGUCGCAGCCCCUGUCAGAUUCUGGUGAAUCUGCGGACUCUGCUGUAUAUCUC [A5C A28G A64G U66C] as the variant, how does the self-cleavage read?
Answer: Its self-cleavage is 0.06.

Question: With UAACCGGGGGCCACAGCAGGAGCGUUCACGUCGCAGCCCCUGUCAGAUUCAAGUGAAACUGCGAAUUCUGCUGUAUAUCCC [A5C A20G U51A G52A U58A U80C] as the variant, how does the self-cleavage read?
Answer: Its self-cleavage is 0.22.

Question: With UAACCGGGGGCCGCAGCAGAUGCGUUCACGUCGCAGCCCCUGUCAGAUUCUGGUGAAUCUGCGAAUUCUGCCGUAUGUCUC [A5C A13G A21U U72C A77G] as the variant, how does the self-cleavage read?
Answer: Its self-cleavage is 0.27.

Question: Which self-cleavage does the source give for UAACCGGGGGCCACAGCAGAAGCGUUCACGUCGCUGCCCCUGUCAGAUUCCGGUGAAUCUGCGAAUUCUGCUGUAUAUCUC [A5C A35U U51C] here?
Answer: The self-cleavage was 0.36.

Question: Which self-cleavage does the source give for UAACCGGGGGCCACGGCAGAAGCGCUCACGUCGCAGCCCCUGUCCGAUUCUGGUGAGUCUGCGAAUUCUGCUGUAUAUCUC [A5C A15G U25C A45C A57G] here?
Answer: Its self-cleavage is 0.63.
